# Laboratory results taken from PMC6919601, “Identification of Plasmodium dipeptidyl aminopeptidase allosteric inhibitors by high throughput screening” (PLoS ONE, 2019).
# Screen size: about 110,000 compounds; about 230 (0.21%) showed an effect of 50% or more. The list shows a part of the results.
# Target: DPAP1 (Plasmodium falciparum, UniProt Q8IIJ9)
# Test: primary screen, percent inhibition; read by cleavage of a fluorogenic dipeptide substrate; higher = more effect of the substance
# Parameters: species or system P. falciparum D10 trophozoite lysates; single well
# 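Further: 30 min substrate incubation versus DMSO and 10 µM JCP410 controls.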
# DPAP1, sequence (Q8IIJ9 whole entry, looked up): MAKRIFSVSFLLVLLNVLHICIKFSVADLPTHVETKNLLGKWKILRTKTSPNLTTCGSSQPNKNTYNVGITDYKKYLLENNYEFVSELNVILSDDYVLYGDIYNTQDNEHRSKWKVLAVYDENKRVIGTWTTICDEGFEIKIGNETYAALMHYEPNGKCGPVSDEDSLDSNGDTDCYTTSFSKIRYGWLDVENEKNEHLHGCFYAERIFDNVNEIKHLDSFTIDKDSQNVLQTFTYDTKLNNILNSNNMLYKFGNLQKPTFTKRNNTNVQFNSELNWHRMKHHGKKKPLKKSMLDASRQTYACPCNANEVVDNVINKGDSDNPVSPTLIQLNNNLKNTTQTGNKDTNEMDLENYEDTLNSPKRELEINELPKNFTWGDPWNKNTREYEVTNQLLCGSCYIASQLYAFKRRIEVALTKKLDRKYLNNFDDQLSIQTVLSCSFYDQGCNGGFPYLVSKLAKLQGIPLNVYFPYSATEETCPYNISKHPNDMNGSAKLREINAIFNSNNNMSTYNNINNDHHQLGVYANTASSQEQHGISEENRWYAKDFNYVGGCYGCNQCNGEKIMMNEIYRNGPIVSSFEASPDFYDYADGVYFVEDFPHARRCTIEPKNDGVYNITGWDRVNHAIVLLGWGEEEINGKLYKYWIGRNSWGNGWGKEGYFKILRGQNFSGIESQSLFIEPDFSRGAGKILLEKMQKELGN
row,SMILES,% Inhibition @ 10 uM [%]
1,COC(=O)c1ccc(-c2nc(-c3ccc(C(F)(F)F)cc3)no2)cc1,-4.19
2,COC1CCCCC1NCCc1ccccc1F (stereo not drawn),1.84
3,Cc1ccc2c(c1)C1OCCC1C(c1ccco1)N2 (stereo not drawn),4.67
4,CC1=C(C(=O)OCCOc2ccccc2)C(c2cccc(Oc3ccccc3)c2)NC(=O)N1 (stereo not drawn),4.35
5,COc1cc(CN(C)C2CCN(C)CC2)cc(OC)c1O,-4.61
6,CC1(C)CCCC2=C1CC(C(=O)O)C(C(=O)NCc1cccnc1)C2 (stereo not drawn),3.72
7,O=C(C1CCN(S(=O)(=O)N2CCC3(CC2)OCCO3)CC1)N1CCN(Cc2ccccc2)CC1,6.86
8,COc1ccc(C2NC(=O)C(O)=C2C(=O)c2ccc(C)cc2)cc1 (stereo not drawn),0.475
9,CCc1ccccc1NC(=O)c1ccccc1C(=O)O,-1.29
10,Cc1ccc(CSc2nc3cccnc3n2Cc2cc(=O)n3ccccc3n2)cc1,-0.35
11,CCN(CC)c1ccc2nonc2c1[N+](=O)[O-],0.962
12,COC(=O)c1ccc(NC(=O)CN2C(=O)c3ccccc3C2=O)cc1,-6.82
13,Fc1ccc(CNc2ccc(CNc3nc[nH]n3)cc2)cc1,1.84
14,Cn1c(=O)c2c(ncn2CCCOC(c2ccc(F)cc2)c2ccc(F)cc2)n(C)c1=O,1.89
15,O=C1c2ccccc2C(=O)N1CCCc1nc(-c2ccc(Cl)cc2)no1,-1.11
16,Cc1nn(CC(=O)N(C)Cc2ccccc2)c(=O)c2cccn12,-3.93
17,Cc1nn(CC(=O)NCC2CCCO2)c(=O)c2cccn12 (stereo not drawn),-0.542
18,CC(Cc1ccc(OCCN(C)C)cc1)N(C)C (stereo not drawn),-1.91
19,Cc1nnc(N2C(=O)c3oc4ccccc4c(=O)c3C2c2ccccc2)s1 (stereo not drawn),-1.86
20,COc1ccccc1OCC(=O)Nc1cccc(N(C)S(C)(=O)=O)c1,-15.4
21,CCOC(=O)N1CCN(C(=O)c2cc3c(s2)-c2c(C)cccc2OC3)CC1,-1.58
22,CC1=C(C(=O)OCC(F)(F)F)C(c2ccc(Cl)cc2)NC(=O)N1 (stereo not drawn),5.92

row,SMILES,% Inhibition @ 10 uM [%]
1,Cc1cc(C)nc(/N=C(\N)Nc2cccc(OCc3ccccc3)c2)n1,-1.02
2,COc1cc(C(=O)Nc2nn3c(C)nnc3s2)cc(OC)c1OC,1.1
3,COc1ccc(C(=O)NCCCn2ccnc2)cc1,3.87
4,CCOc1ccc(-c2[nH]nc3c2C(c2sccc2C)C(C#N)=C(N)O3)cc1 (stereo not drawn),-0.968
5,C=CCOc1ccc(CNc2ccccc2Cl)cc1OC,1.19
6,COc1ccc(C2NCCC3(O)CCCCC23)c(OC)c1C (stereo not drawn),3.15
7,COc1ccccc1-n1c(O)cc(=O)[nH]c1=S,-1.62
8,CC(C)CNC(=O)CN(c1cccc2ccccc12)S(C)(=O)=O,0.793
9,Cc1ccc(N(C)C(=O)N2CCN(S(=O)(=O)c3ccc(C)c(C)c3)CC2)cc1,-3.18
10,CCN(CC)C(=O)c1ccc(/C=C/c2c[nH]c3ccccc23)[n+](C)c1,-0.0959
11,CCCCOc1ccc(NS(=O)(=O)c2c(C)nc(O)nc2O)cc1,5.03
12,Clc1ccc(NCn2nnc3ccccc32)nc1,2.09
13,Cc1cccc(NC(=O)CN2C(=O)N/C(=C/c3cc(C)n(-c4ccc5c(c4)OCO5)c3C)C2=O)c1,14.8
14,CC(C)C1C(c2ccccc2)NC(c2ccccc2)CC1(C)O (stereo not drawn),-0.996
15,CC(C)COc1ccc(C(CC(=O)O)C(=O)O)cc1 (stereo not drawn),0.0069
16,CCCCN(CCC(=O)O)CP(C)(=O)O,-1.59
17,OCC/N=c1\cc(-c2ccccc2)oc2ccc(Cl)cc12,0.561
18,O=C(Cc1ccc(-c2ccccc2)cc1)Nc1cc(Cl)ccc1Cl,-0.636
19,O=C1NC(=O)C(C2CCCCC2)C(=O)N1,2.58
20,Oc1ccc(Cl)cc1-c1csnn1,1.81
21,COc1ccccc1-c1cc(C(=O)N2CCOCC2)no1,4.5
22,COc1cc(CNc2cccc(Cl)c2)ccc1OCC(=O)NC(C)(C)C,2.01

row,SMILES,% Inhibition @ 10 uM [%]
1,CSCCC(NC(=O)C1CCC(C)CC1)C(=O)NC1CCN(Cc2ccccc2)CC1 (stereo not drawn),-4.86
2,O=C(Nc1ccc2c(c1)Nc1ccccc1CC2)c1ccccc1,-0.591
3,CCOc1ccc2[nH]c(SCCc3ccccc3)nc2c1,-5.15
4,CN1C(C(=O)NCC23CC4CC(CC(C4)C2)C3)=CC(c2ccco2)=NS1(=O)=O,-2.84
5,O=C(CSc1nc[nH]n1)c1ccccc1,1.63
6,COc1ccc(CN2CCN(c3cccc(C(F)(F)F)c3)CC2)cc1Br,1.27
7,O=C1CC(NCCc2ccc(Cl)cc2Cl)C(=O)N1c1ccccc1 (stereo not drawn),-4.15
8,OC(CCCN1CCC(O)(c2ccc(Cl)cc2)CC1)c1ccc(F)cc1 (stereo not drawn),-0.95
9,CC(=O)c1cc(-c2ccc(F)cc2)n(CCC(=O)NC(C)(C)C)c1C,-1.88
10,Cc1ncc2[nH]c3ccccc3c2c1C(=O)O,-5.44
11,O=C(Nc1cccnc1)c1ccc(COc2cc(Cl)ccc2Cl)o1,3.72
12,Cc1cc(Cl)ccc1OCC(=O)N[C@@H](C)c1ccccc1,2.13
13,COc1ccc2c(c1)c(=O)oc1c(C)c(OC(C)C(=O)O)ccc12 (stereo not drawn),-3.41
14,Cc1ccc(S(=O)(=O)N2CCCC(C(=O)Nc3nc4c(s3)C(=O)CC(C)(C)C4)C2)cc1 (stereo not drawn),2.29
15,Cc1cc(-c2ccc(C(=O)N[C@@H](CC(C)C)C(=O)NCC#N)cc2)ccc1F,-8.26
16,CCN(CC)c1ccc(/C=C2\N=C(SC)SC2=O)cc1,-4.41
17,O=C(O)c1cc2nc(-c3cccs3)cc(C(F)(F)F)n2n1,0.215
18,N#CC1=C(N)Oc2c(c(O)nc3ccccc23)C1c1ccc(-c2ccccc2)cc1 (stereo not drawn),7.37
19,O=C(NCc1ccccc1Cl)C1CCCN(S(=O)(=O)N2CCCCC2)C1 (stereo not drawn),-8.85
20,Cc1cc(C(F)(F)F)n2nc(C(=O)O)cc2n1,-1.2
21,COc1ccccc1N(CC(=O)NC(C)C)S(=O)(=O)c1ccccc1,5.07
22,COc1ccc(OCCCN2CCCC2)cc1,2.41
